Measured values taken from the RNAGym collection of RNA variant scans (doi:10.1073/pnas.2313332121).
Variants at the floor of the assay are shown more often than the library holds them.

B1: TPR 5TU (parent)
chain: GGAUCUUCUCGAUCUAACAAAAAAGACAAAUCUGCCACAAAGCUUGAGAGCAUCUUCGGAUGCAGAGGCGGCAGCCUUCGGUGGCGCGAUAGCGCCAACGUUCUCAACUAUGACACGCAAAACGCGUGCUCCGUUGAAUGGAGUUUAUCAUG

Variants of: B1
Assay: polymerase ribozyme fitness, log enrichment relative to wild type (log ratio); higher = more active; in vitro selection for triplet polymerase activity
Summary of the method: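 Genotype fitness is the logarithm of its enrichment divided by wild-type enrichment, using inverse-variance-weighted averages of replicates. That logarithm is base 2. Enrichment was measured by Illumina sequencing of input and output libraries from one triplicate in vitro selection round, with frozen incubation at −7 °C, on PCR-built, transcribed mutant libraries of each subunit of a heterodimeric triplet polymerase ribozyme, retaining genotypes with ≥10 input reads and ≥1 read per output.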

Variant | polymerase ribozyme fitness (log ratio)
A19U A28C A40C A41C U44G C85A A113C | ≤ -4.2
A19C A39U U53G A89U U104G C108A G136A A138C U145A | ≤ -4.2
A19C G68A U78A A106U G133U G140U | ≤ -4.2
A19C G34A G59U A91G G141A | ≤ -4.2
A19C G67C C85G C103A | ≤ -4.2
A19C U53A C75U C87U A91C G92C C103A G143U | ≤ -4.2
A19U A22C G94C C96G C123U G128A U139C U146C | ≤ -4.2
C18U U55A | -1.49
A19U C57G C95U C103G U104G | ≤ -4.2
A19C A49G U55G C57G C93U U127G G136A | ≤ -4.2
A19G G46U C51A G67C G80C A120U | ≤ -4.2
C18U U33A A39U A52C C72U G94A C95U C132U | ≤ -4.2
A19U A21U G94A | -1.09
A19C C57A A119G G128A | -4.12
A19C G83A G86A C95A U134G G143U | ≤ -4.2
A19C C54U G67U C85A | ≤ -4.2
C18U U90G | ≤ -4.2
A19C C54G U56G C116A U135G A150G | ≤ -4.2
A19G A49G A52U C76A C129U C132U | ≤ -4.2
C18U U56A C85A G124A U135G G136A | ≤ -4.2
A19C G68C A73U U77G G92A | ≤ -4.2
A19C C27U A30C U53A C85A C99A U134C | ≤ -4.2
A19G U90C C93A C99U A107G A113C G133U | ≤ -4.2
A19U A28U A52G C105G G126C G141C U148A C149U A150C | ≤ -4.2

Variant | polymerase ribozyme fitness (log ratio)
A19G A23C | ≤ -4.2
A19C U31C A52U C72U A91G C95G | ≤ -4.2
A19C C36A G59C A107U A142C | ≤ -4.2
A19U A24C C27U U53A U139C | ≤ -4.2
A19C A47U G67A G68U G124A A150G | ≤ -4.2
A19C G34U G50C U56A G83C G124U G141C | ≤ -4.2
A19U C72U G86U C114G A115U | ≤ -4.2
A19U C57U C103G A119G C123A | -3.45
A19G A28C U53A G74A C96U U102G G128U | ≤ -4.2
A19U A30C C75U G83C C95U G117U A121G | ≤ -4.2
A19U A29U A107C C108G G124A | ≤ -4.2
A19G A91U | ≤ -4.2
A19U C32G G83C U102C U144C | ≤ -4.2
A19G G50A | -2.14
A19G A30U C54U C79A G84U C116G C118G U144A | ≤ -4.2
A19U A30U C36U U56G G86A G126C U144C | ≤ -4.2
A19C U53A U55G A60G A73G G84A | ≤ -4.2
A19C A60U G83A A97U A106G C132G A142C | ≤ -4.2
A19U A23G U45A U82A A91U | ≤ -4.2
A19C C123G | 0.921
A19G U109C G141A | -2.85
A19G C54G | -1.84
A19U A22C C27G A37G C57U C87G C96G G112C | ≤ -4.2
A19C A21C C35U G59U C75U | -1.16

Variant | polymerase ribozyme fitness (log ratio)
A19G C27G C103A U134G U135G U145G | ≤ -4.2
A19U C32G C54U C63A G84U G88U A89U G126U | ≤ -4.2
C18U U45A G62U U78G C85U G128U | ≤ -4.2
A19G G42C C87G G128C | ≤ -4.2
A19U A40U C54A A60G C96U | -2.61
A19G U148G | -3.88
A19U A41U C57A C75G G83U A106G C123G | ≤ -4.2
A19U C54U C85A G117C G140C A150C | ≤ -4.2
A19C U31C A37U A41C G92C A138U | ≤ -4.2
A19C U31C U33A A49C C93U U134C | ≤ -4.2
A19C A28C | ≤ -4.2
A19C A21G C57A G58U C72U C85U C103U U134C | -0.327
A19G G74C U102G | ≤ -4.2
A19G G59C C87G C116U A122U G136A A142U U151C | ≤ -4.2
A19G C27U G50C C93G | ≤ -4.2
A19G G59U G84U C105G | -3.78
A19U A24C C35U C57U A66C G86U | -4.08
A19U A40U U53A C87A G94A | ≤ -4.2
A19C C87G | ≤ -4.2
A19G U44A A66G C76A A138C | ≤ -4.2
A19G G46C A107U A120C C129U | ≤ -4.2
A19U A23G G48C U55A G94A G136U G152A | ≤ -4.2
A19G A26U U53G G124C U148C | ≤ -4.2
A19U A49C C54A G62A A119G C125U U144A | ≤ -4.2

Variant | polymerase ribozyme fitness (log ratio)
A19C C79G C87G G94C | ≤ -4.2
C18U U31A G70C G80C C95G C96A A122G | ≤ -4.2
A19U A23C A26U | ≤ -4.2
C18U U61G A91C C93G C96U C99U A147U | ≤ -4.2
A19C U33G G74A C79G G94C U101C | ≤ -4.2
A19G C32A G46C C54U G59C G94A C96U C123A A137C U139G | ≤ -4.2
A19C A28C A73G C87U | ≤ -4.2
A19G A24U U31C C35G U61G C75U G83A | ≤ -4.2
A19U A23C C38U A39C G58U G92A G141C G143U | ≤ -4.2
A19C A20U G68A C79G | ≤ -4.2
A19C A47G C79U C85A U90G A121C | ≤ -4.2
A19G A37U U101G | -2.14
A19U A26U C75G C76G G94C G128U | ≤ -4.2
A19U C51G G68A G83A | ≤ -4.2
A19C C38A G59C A64C A113U G133U | ≤ -4.2
A19C A41C C51U G58C A91U A110C G124U G140U | ≤ -4.2
A19C A22G C76G C93U C116U U148A | ≤ -4.2
A19G A40U C57A U61A G100U G136U G141C | ≤ -4.2
A19U A52G U53G G88A C93A C95A U145C | ≤ -4.2
A19G U44A G68C C103G U104A A107U A115C A137C | ≤ -4.2
A19C A52G U53A U56A G88U C93G | ≤ -4.2
A19U A66G G71C G88A U104G | ≤ -4.2
A19C A52G U53A A98U A110U | ≤ -4.2
A19C C51U A142C | -0.768

Variant | polymerase ribozyme fitness (log ratio)
A19U A137G C149G | ≤ -4.2
A19G A30G G42C G50A C85U U109A A120G | ≤ -4.2
A19C G42C C95U U145G | ≤ -4.2
A19C A26U C63U C103G | ≤ -4.2
A19C A23U U53A | ≤ -4.2
A19G A73G C85A | -1.82
A19G G34C C85G A89U U139A A147U | ≤ -4.2
A19U A37C A64G A97C | ≤ -4.2
A19C G65C C69G C85U C87G U102G A121G G124A U139G | ≤ -4.2
A19C A26U C96G U111A A120U U148G | ≤ -4.2
A19C G48U G50U C69U C85G A121C | ≤ -4.2
A19G A21G C87U C108G A113U U130A | ≤ -4.2
A19C A29U U53A U101G G143C | ≤ -4.2
A19U A21U G86A C103U | -2.31
A19U C27U A30U C54G U56A C75G C93G C114G | ≤ -4.2
A19G U53G A120U | -2.57
A19U C57G G68U G71C G128U | ≤ -4.2
A19U C38A G50C G71U A98G C103A C105G | ≤ -4.2
A19C C87U U90G C99U G126U C131U A142G | ≤ -4.2
A19C U55A C75A G84U U102C | ≤ -4.2
A19U A120U | -0.806
A19C A22G G81C G83C G84A G92A | ≤ -4.2
A19C U53A G100U C103G U130G | ≤ -4.2
A19G A41C G42C A49C U90C U127A | ≤ -4.2

Variant | polymerase ribozyme fitness (log ratio)
A19C U44A A91G | ≤ -4.2
A19G A22G U31G A41U U44A A60C G81A G83C G84A U146A | ≤ -4.2
A19U A49G C57A A60U C116U | -2.27
A19G A30C C32U A41C C54A U90C G94A | ≤ -4.2
A19U A60G G94A C99G U104G | ≤ -4.2
A19C G83U C87U | -0.445
A19C A22U G42U C75G C76A G94A A110U G133U G143U U146G | ≤ -4.2
A19C C69U A107U A137G | ≤ -4.2
A19G A29U A40U G59A C76G C95U C99U | ≤ -4.2
A19C A29U A47G A89C C96G G141A G152U | ≤ -4.2
A19G G83C | -1.11
C18U U45A C57U G92A C93A | ≤ -4.2
A19G A22C U55A G65U C85A G128U | ≤ -4.2
A19C A22U A30U C43U G136U U148C | ≤ -4.2
A19G A21G A24C A26C C35U A47C U53G U56A A60C U61A C75G C93A U104G | ≤ -4.2
A19U C57U A91U G92U C93U A142G | ≤ -4.2
A19G A26G C54U U56G C76U U127G G141U | ≤ -4.2
A19U C54U U90C C118A | ≤ -4.2
A19U A30G G42A G46C G68U C87U A91C C132U A142C U144C A147G | ≤ -4.2
A19C U56G C85G C118U A150C | ≤ -4.2
A19C A24G G42U A52U G92U | ≤ -4.2
A19C A24C A29U A98G | ≤ -4.2
A19G A30G C38U G84U U90G C93A | ≤ -4.2
C18U U31G A41G U56A C63U C95U C96G U144C | -2.53

Variant | polymerase ribozyme fitness (log ratio)
A19C C54U | -0.474
A19U A37C C51G U56G G68A U78C A106G | ≤ -4.2
A19U A41U C54U G81C G86U C103U G126C | ≤ -4.2
A19U A40C G81C C96G | -1.25
A19C A29U A39U A60U C76U C95U U144A | ≤ -4.2
A19G A47G G48A | -3.23
A19C A39U G84C C93A U148A | ≤ -4.2
A19G A91G C95U C125U | -4.01
A19C C32G C79U C93U A110C | ≤ -4.2
A19C C96U A106G A120C | 0.311
A19G U90A C95G | ≤ -4.2
A19U A21U C85G | -2.46
A19C C85G G128C U146C | ≤ -4.2
A19C C57U G86A | -0.316
A19G A29U C76G G83U U90C A107G G128U | ≤ -4.2
A19G A47C C57A C96U U101G C123U U145A | -0.877
C18U U55A G81C C93U C105U C118G | -1.85
A19C G58C U127G U145G | ≤ -4.2
A19C A30U G46U A60C C69A C85U C87A C96U C105U G143U U146C | ≤ -4.2
A19U C38G G59C G86A C99U G117U C118A U127A A138G | ≤ -4.2
A19C U109G | -0.641
A19C U56A C93U C129U U151G | ≤ -4.2
A19U C35G A66G G70A G94U C114U C149G | ≤ -4.2
